From PMC12040169 (PLOS Biology, 2025)
This is one part of the list.

What follows are compounds tested on T1, C. trachomatis L2/434/Bu expressing GFP (CTL2-GFP). Details: total inclusion area; 28.5 h, 10 µM; inhibitor.
T1 construct: L2/434/Bu GFP intracellular growth in HeLa cells
Design: species or system HeLa; C. trachomatis total inclusion area by high-content imaging, normalised to DMSO
How it was run: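 Post-fluorescence-read fixation, DNA staining with Hoechst and high-content imaging; GFP inclusion area and number per well, and nuclei counts, used as proxies for bacterial growth and host viability.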

Structure (SMILES) | % of control remaining
Cc1cccc(C)c1N1C(=O)c2ccccc2NC12C(=O)Nc1ccc([N+](=O)[O-])cc12 (stereo not shown) [CBK103749] | 94.9036
N#CCCc1ccc(Oc2ncc(C(F)(F)F)cc2Cl)cc1 [CBK161635] | 104.733
CN1CCN(C)C(COc2ccc(C(F)(F)F)cn2)C1 (stereo not shown) [CBK113288] | 97.662
O=C(O)c1ccc(CN2CCC3(C/C=C/CNC(=O)c4ccccc4OCCNC3=O)CC2)cc1 [CBK292002] | 95.5883
CNc1nc(C2CCN(C(=O)c3ccc(N4CCC(C)CC4)cc3)C2)nc2c1CCN(C)C2 (stereo not shown) [CBK285835] | 102.963
CCNC(=O)N1CCC(Oc2cc(C)ccc2F)(C(=O)O)CC1 [CBK307147] | 97.4877
CCN(CCC(F)(F)F)C(=O)Cc1csc(NC(=O)c2ccoc2C)n1 [CBK305729] | 73.4743
CC(=O)Nc1ccc(N2CCN(CCO)CC2)cc1OCCCOc1ccccc1 [CBK074317T] | 61.6541
Cn1c(=O)c2c(nc(CN3CCCCC3)n2CC(=O)c2ccccc2)n(C)c1=O [CBK269563] | 117.568
COc1cccc(OCC2CCCN(C(=O)CCc3cnn(C)c3)C2)c1 (stereo not shown) [CBK306931] | 74.6062
CCCS(=O)(=O)n1c(=O)n(Cc2ccc(OC)cc2)c2ccccc21 [CBK106553] | 122.051
CC1CCN(CC(O)c2ccc3c(c2)CCN3C(=O)C2CC2)CC1 (stereo not shown) [CBK282927] | 85.756
O=C1Nc2ccc(-c3ccccc3F)cc2C(=O)N2CCN(C(=O)C3CCNCC3)C[C@H]12 [CBK289592] | 124.265
O=C(O)c1cccc(Nc2nc(Nc3ccccc3)nc(N3CCCC3)n2)c1 [CBK286863] | 105.827
CCCC(=O)NCC(C)c1nsc(NS(=O)(=O)c2cccc(Cl)c2C)n1 (stereo not shown) [CBK200053] | 78.8916
Cc1cc(C)n(-c2ccccc2O)n1 [CBK026493] | 27.991
COc1ccc2c(c1)nc1n2CCC1OC(C)=O (stereo not shown) [CBK115379] | 102.574
OCCOc1ccc(Cl)c2cccnc12 [CBK000620] | 99.9011
CN1CCN(CC(=O)Nc2cc(N3CCOCC3)ccc2[N+](=O)[O-])CC1 [CBK047475] | 86.3858
O=C(O)c1cnc(Cl)c(Br)c1 [CBK026874] | 26.7072
O=[N+]([O-])c1ccc(OCCCNCCO)cc1 [CBK262244] | 96.3624

Structure (SMILES) | % of control remaining
Cc1nnc(NC(=O)C2CCN(C(=O)c3cccc(F)c3)CC2)s1 [CBK307588] | 75.0424
COC(=O)c1cc(CN2CCCN(S(=O)(=O)c3ccc(C(=O)c4ccccc4)cc3)CC2)cn1C [CBK062770] | 82.6858
O=C(c1cccs1)N1CCOC(Cn2ccnc2)C1 (stereo not shown) [CBK282256] | 75.2027
Cc1c(Cl)cccc1NC(=O)c1cnc2scc(C)n2c1=O [CBK287463] | 86.1825
CC(=O)N1C[C@@H](N(C)C)[C@H](c2cn(C)c3ccccc23)C1 [CBK285007] | 105.805
CCOc1ccc(C(=O)NC2CC3CCC(C2)N3Cc2ccc(OC)cc2)cc1 (stereo not shown) [CBK121398] | 96.3892
CSCCC(NC(=O)c1ccc(C#CC(C)(C)O)cc1)C(=O)O (stereo not shown) [CBK276698] | 89.6187
CC(=O)N(C)c1nc(-c2ccco2)ccc1C(=O)Nc1cc(C)nn1C [CBK106356] | 107.252
CCOC(=O)CN1CCC(Oc2cncc(Oc3ccc(OC)c(OC)c3)n2)C1 (stereo not shown) [CBK084405] | 94.5036
COCCn1c(SC(C)C(=O)NC2CC2)nc2ccc(Br)cc2c1=O (stereo not shown) [CBK305481] | 53.1054
COc1ccc(C)cc1NS(=O)(=O)CC(C)C [CBK111346] | 50.3339
O=C(NCc1c(F)cccc1F)C1(c2ccccc2)CCCC1 [CBK149527] | 70.9673
COc1cc(CN2CCNCC2)c2ccn(S(=O)(=O)c3cccc(Cl)c3C)c2c1 [CBK144484T] | 23.8755
O=C(Nn1cnnc1)c1cccc(C(=O)Nn2cnnc2)c1 [CBK091759] | 98.8264
Cn1c(-c2ccc(-c3nc4cnccc4n3C)cc2)nc2cnccc21 [CBK261423] | 104.433
CCSc1nc(SCC)c2c3c([nH]c2n1)CCCC3 [CBK019936] | 36.2037
Cc1ccc(OCC(O)CN(C)S(=O)(=O)O)c([N+](=O)[O-])c1 (stereo not shown) [CBK262062K] | 88.066
CN1CCN(c2ccc(-c3cc(NC4CCCCC4)ncn3)cn2)CC1 [CBK090899] | 74.0196
COc1ccc(CCNC(=O)CCCc2cn(C)c3ccccc23)cc1OC [CBK061740] | 98.1891
O[C@H]1[C@H](NCC2CC2)[C@H]2CO[C@H](O2)[C@@H]1N1CCOCC1 [CBK288819] | 101.815
CCCS(=O)(=O)N1Cc2c(ncn2C)C[C@H]1C(=O)OC [CBK288991] | 101.959

Structure (SMILES) | % of control remaining
O=S(=O)(c1ccc(-c2ccccc2)cc1)N1CCCN(Cc2ccc(F)c(C(F)(F)F)c2)CC1 [CBK063115] | 48.0258
Cc1c(CN(Cc2ccccc2)CC2CCCO2)cnn1C (stereo not shown) [CBK283263] | 90.8478
CCC(C)(CC(=O)O)CC(=O)N1CCC2(CC1)OCCc1c2[nH]c2ccccc12 (stereo not shown) [CBK047051] | 103.762
COCCn1c(SC(C)C(=O)N2CCNC2=O)nc2ccccc21 (stereo not shown) [CBK305832] | 87.0805
Oc1ccc(-c2n[nH]c(C(F)(F)F)c2Oc2ccc(F)cc2)c(O)c1 [CBK264440] | 90.1259
COc1ccc(-c2nc(=S)c3c(n2CCCN(C)C)CC(C)(C)OC3)cc1 [CBK267844] | 115.678
Cc1nccn1CCC(=O)NC(c1ccncc1)c1cccs1 (stereo not shown) [CBK281440] | 102.025
COc1cccc(CNCC2CCCO2)c1OCc1ccccc1 (stereo not shown) [CBK269798C] | 64.7624
CCCC/C=C/c1cc(NCCC)n2nccc2n1 [CBK037127] | 55.4593
OCC1CCC(O)C(CO)N1 (stereo not shown) [CBK022827C] | 73.6975
O=C(O)c1cccc(NC(=O)c2cc(-n3cnnc3)ccc2Cl)c1 [CBK268026] | 107.926
C[S+]([O-])CCn1c2ccccc2c2c(N3CCCC3)nc(N3CCCC3)nc21 (stereo not shown) [CBK017586] | 110.635
O=C(Cn1cccc(C(=O)NC2CCCCC2)c1=O)Nc1nc2c(s1)CCCCC2 [CBK286056] | 104.381
Cc1ccn2cc(CNC(=O)CCC(C)N3CCN(C)CC3)nc2c1 (stereo not shown) [CBK306628] | 75.9576
O=C(CSc1nnc(Cc2ccccc2)n1-c1ccc(Cl)cc1)Nc1cc(Cl)ccc1O [CBK269061] | 98.997
Cc1cc2c(s1)c1cnn(Cc3ccncc3)c(=O)c1n2C [CBK284188] | 72.1552
CCn1c(CN2CCC(n3nc(C)cc3C)CC2)nc2ccccc21 [CBK281615] | 80.6192
CS(=O)(=O)Nc1ccc2cc(-c3ccsc3)cnc2n1 [CBK085665] | 98.3355
CC(=O)N1CCN(CC[C@@H]2CC[C@H](O)[C@@H](C(=O)N(C)Cc3ccccc3)O2)CC1 [CBK288716] | 101.697
COCc1nnc(Sc2nccc(C(F)(F)F)n2)s1 [CBK093790] | 81.8809
CC(C)Nc1nccnc1-c1ccc(CO)cc1 [CBK088519] | 72.4317

Structure (SMILES) | % of control remaining
CC(C)N(Cc1cccnc1)C(=O)Cn1c(C2CC2)nc2ccccc21 [CBK306156] | 92.6189
c1ccc2nc(N3CCCC3)c(Sc3nccs3)nc2c1 [CBK093794] | 84.0685
COCCOC1CN(Cc2cn(-c3ccc(Br)cc3)nc2C(C)C)C1 [CBK304852] | 87.4677
OCn1nc(-c2ccc(Cl)cc2Cl)oc1=S [CBK288410] | 50.3988
CCCN1CCC(CNC(=O)Cn2ccc3ccc(F)cc32)CC1 [CBK282573] | 97.1512
CCc1nn(CC(=O)N2CCCCC2)c(=O)c2cc3oc(C)cc3n12 [CBK283575] | 55.9775
CN(C)CC1CCCCN1C(=O)[C@@H]1C[C@@H]2C=C[C@H]1C2 (stereo partly shown) [CBK282086] | 129.282
CCOc1ccccc1CNCc1ccccn1 [CBK268041C] | 100.825
Cc1ccc(C)c(OCCNCc2ccco2)c1Cl [CBK269718C] | 81.6304
Cn1c(CCC(=O)Nc2c[nH]c3ccccc23)nc2ccccc21 [CBK282507] | 87.2219
COc1ccc2[nH]c3c(c2c1)CCNC31CCN(CCC2CCCCC2)C1 (stereo not shown) [CBK040111T] | 83.1661
Oc1c2c(nn1Cc1ccccc1)CCCC2 [CBK089898] | 99.1427
COc1cc(CNC(=O)N2CCN(C3CCN(C)CC3)CC2)cc(OC)c1OC [CBK155893] | 91.1529
CCOc1ccc(Cl)cc1S(=O)(=O)NCCO [CBK269996] | 101.031
Nc1nccnc1C(=O)N1CCN(C(=O)Cc2c[nH]c3ccccc23)CC1 [CBK298339] | 95.4562
COc1ccc(Cl)cc1NC(=O)C(=O)NCC1CCCO1 (stereo not shown) [CBK263823] | 138.043
O=C(O)c1cc(NC(=O)c2cccc(N3C(=O)c4ccccc4C3=O)c2)cc(C(=O)O)c1 [CBK263338] | 94.6768
COCCN1C(=O)CN(Cc2ccccc2)C1=O [CBK162369] | 45.6178
COc1cc(/C=C2\SC(=N)NC2=O)cc(Cl)c1OS(=O)(=O)c1ccc(NC(C)=O)cc1 [CBK264502] | 100.875
